Among the data in article PMC9911399, “Two distinct binding modes provide the RNA-binding protein RbFox with extraordinary sequence specificity” are binding signal values, retold here.

T1: RBFOX1 RRM (Homo sapiens, UniProt Q9NWB1 109-208)
T1 sequence: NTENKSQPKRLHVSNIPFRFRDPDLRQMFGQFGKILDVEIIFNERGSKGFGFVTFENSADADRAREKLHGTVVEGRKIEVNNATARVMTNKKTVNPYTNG

B1: GUAUCUU (DNA:RNA)
RNA: GGGAGACCGGAAUUCAGAUUGUCCGUAUCUUUUAAAUCCCGUCGUAGCCACCA
DNA 1: CAATCTGAATTCCGGTCTCCC
DNA 2: TGGTGGCTACGACGGGATT
B2: UUACGCU (DNA:RNA)
RNA: B1 RNA with G25U, U28C, C29G, U30C
DNA 1: CAATCTGAATTCCGGTCTCCC
DNA 2: TGGTGGCTACGACGGGATT
B3: GAGGGUG (DNA:RNA)
RNA: B1 RNA with U26A, A27G, U28G, C29G, U31G
DNA 1: CAATCTGAATTCCGGTCTCCC
DNA 2: TGGTGGCTACGACGGGATT
B4: UGUGCGU (DNA:RNA)
RNA: B1 RNA with G25U, U26G, A27U, U28G, U30G
DNA 1: CAATCTGAATTCCGGTCTCCC
DNA 2: TGGTGGCTACGACGGGATT
B5: GCGUAUU (DNA:RNA)
RNA: B1 RNA with U26C, A27G, C29A
DNA 1: CAATCTGAATTCCGGTCTCCC
DNA 2: TGGTGGCTACGACGGGATT
B6: UCCCUGU (DNA:RNA)
RNA: B1 RNA with G25U, U26C, A27C, U28C, C29U, U30G
DNA 1: CAATCTGAATTCCGGTCTCCC
DNA 2: TGGTGGCTACGACGGGATT
B7: UUCUCUC (DNA:RNA)
RNA: B1 RNA with G25U, A27C, U31C
DNA 1: CAATCTGAATTCCGGTCTCCC
DNA 2: TGGTGGCTACGACGGGATT
B8: GAAGUUG (DNA:RNA)
RNA: B1 RNA with U26A, U28G, C29U, U31G
DNA 1: CAATCTGAATTCCGGTCTCCC
DNA 2: TGGTGGCTACGACGGGATT
B9: AUUGGCC (DNA:RNA)
RNA: B1 RNA with G25A, A27U, U28G, C29G, U30C, U31C
DNA 1: CAATCTGAATTCCGGTCTCCC
DNA 2: TGGTGGCTACGACGGGATT
B10: CAUUUAA (DNA:RNA)
RNA: B1 RNA with G25C, U26A, A27U, C29U, U30A, U31A
DNA 1: CAATCTGAATTCCGGTCTCCC
DNA 2: TGGTGGCTACGACGGGATT
B11: GUGAAUG (DNA:RNA)
RNA: B1 RNA with A27G, U28A, C29A, U31G
DNA 1: CAATCTGAATTCCGGTCTCCC
DNA 2: TGGTGGCTACGACGGGATT
B12: GCCCUUU (DNA:RNA)
RNA: B1 RNA with U26C, A27C, U28C, C29U
DNA 1: CAATCTGAATTCCGGTCTCCC
DNA 2: TGGTGGCTACGACGGGATT
B13: UUCGCAG (DNA:RNA)
RNA: B1 RNA with G25U, A27C, U28G, U30A, U31G
DNA 1: CAATCTGAATTCCGGTCTCCC
DNA 2: TGGTGGCTACGACGGGATT
B14: UAAAACU (DNA:RNA)
RNA: B1 RNA with G25U, U26A, U28A, C29A, U30C
DNA 1: CAATCTGAATTCCGGTCTCCC
DNA 2: TGGTGGCTACGACGGGATT
B15: CCGAUUG (DNA:RNA)
RNA: B1 RNA with G25C, U26C, A27G, U28A, C29U, U31G
DNA 1: CAATCTGAATTCCGGTCTCCC
DNA 2: TGGTGGCTACGACGGGATT
B16: UGAGUCG (DNA:RNA)
RNA: B1 RNA with G25U, U26G, U28G, C29U, U30C, U31G
DNA 1: CAATCTGAATTCCGGTCTCCC
DNA 2: TGGTGGCTACGACGGGATT
B17: CCACAGG (DNA:RNA)
RNA: B1 RNA with G25C, U26C, U28C, C29A, U30G, U31G
DNA 1: CAATCTGAATTCCGGTCTCCC
DNA 2: TGGTGGCTACGACGGGATT
B18: CGUCUAG (DNA:RNA)
RNA: GGGAGACCGGAAUUCAGAUUGUCCCGUCUAGUUAAAUCCCGUCGUAGCCACCA
DNA 1: CAATCTGAATTCCGGTCTCCC
DNA 2: TGGTGGCTACGACGGGATT
B19: AGCUGAU (DNA:RNA)
RNA: B18 RNA with C25A, U27C, C28U, U29G, G31U
DNA 1: CAATCTGAATTCCGGTCTCCC
DNA 2: TGGTGGCTACGACGGGATT
B20: GGAAGCC (DNA:RNA)
RNA: B1 RNA with U26G, U28A, C29G, U30C, U31C
DNA 1: CAATCTGAATTCCGGTCTCCC
DNA 2: TGGTGGCTACGACGGGATT
B21: AGACUAG (DNA:RNA)
RNA: B18 RNA with C25A, U27A
DNA 1: CAATCTGAATTCCGGTCTCCC
DNA 2: TGGTGGCTACGACGGGATT
B22: GAUCCAC (DNA:RNA)
RNA: B18 RNA with C25G, G26A, U29C, G31C
DNA 1: CAATCTGAATTCCGGTCTCCC
DNA 2: TGGTGGCTACGACGGGATT
B23: UACUCCU (DNA:RNA)
RNA: B1 RNA with G25U, U26A, A27C, U30C
DNA 1: CAATCTGAATTCCGGTCTCCC
DNA 2: TGGTGGCTACGACGGGATT
B24: AUAGCAU (DNA:RNA)
RNA: B1 RNA with G25A, U28G, U30A
DNA 1: CAATCTGAATTCCGGTCTCCC
DNA 2: TGGTGGCTACGACGGGATT
B25: GAGGAAU (DNA:RNA)
RNA: B1 RNA with U26A, A27G, U28G, C29A, U30A
DNA 1: CAATCTGAATTCCGGTCTCCC
DNA 2: TGGTGGCTACGACGGGATT
B26: GGCUAUG (DNA:RNA)
RNA: B1 RNA with U26G, A27C, C29A, U31G
DNA 1: CAATCTGAATTCCGGTCTCCC
DNA 2: TGGTGGCTACGACGGGATT
B27: UACAACA (DNA:RNA)
RNA: GGGAGACCGGAAUUCAGAUUGUCCUACAACAUUAAAUCCCGUCGUAGCCACCA
DNA 1: CAATCTGAATTCCGGTCTCCC
DNA 2: TGGTGGCTACGACGGGATT
B28: UAUAUGA (DNA:RNA)
RNA: B27 RNA with C27U, A29U, C30G
DNA 1: CAATCTGAATTCCGGTCTCCC
DNA 2: TGGTGGCTACGACGGGATT
B29: AGCGGGG (DNA:RNA)
RNA: B18 RNA with C25A, U27C, C28G, U29G, A30G
DNA 1: CAATCTGAATTCCGGTCTCCC
DNA 2: TGGTGGCTACGACGGGATT
B30: GUCCAGA (DNA:RNA)
RNA: B27 RNA with U25G, A26U, A28C, C30G
DNA 1: CAATCTGAATTCCGGTCTCCC
DNA 2: TGGTGGCTACGACGGGATT
B31: UGGGCUU (DNA:RNA)
RNA: B1 RNA with G25U, U26G, A27G, U28G
DNA 1: CAATCTGAATTCCGGTCTCCC
DNA 2: TGGTGGCTACGACGGGATT

Substitutions are numbered along the chain they refer to; changes in the protein carry UniProt numbers. The list shows a part of the results.

The test concerns the target T1, RBFOX1 RRM. Briefly: EMSA; HiTS-Eq, 1 nM pool, 10 min; buffer printed only for the single-RNA assays: 10 mM Tris pH 7.5, 150 mM NaCl, 3.4 mM EDTA, 0.001% NP-40, 30 C. The conditions noted are these: tags: His6 N-terminal (pET28a); label: 5' 32P. In outline: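 These values rest on relative association constants, computed from read-count changes of each RNA species versus the control reaction and normalised to the cognate motif. Reads came from free RNA recovered by 8% native PAGE after purified RbFox RRM (wild type or mutant) at increasing concentrations was equilibrated for 10 min in 50 µL with 1 nM of a 5′-radiolabelled pool with 7 randomized nucleotides and DNA-annealed flanks.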
(A gel shift assay detects complexes by their altered migration in electrophoresis.)
Take B1: the binding signal was 0.0109 KA relative to UGCAUGU.
As to B2, the binding signal was 0.00692 KA relative to UGCAUGU.
As for B3, the binding signal was 0.0242 KA relative to UGCAUGU.
The figure for B4 is 0.0272 KA relative to UGCAUGU; for B5 it is 0.00728 KA relative to UGCAUGU.
For B6, the binding signal is 0.00727 KA relative to UGCAUGU.
On to B7, for which the binding signal is 0.00845 KA relative to UGCAUGU.
In the case of B8, the binding signal was 0.0204 KA relative to UGCAUGU.
With B9, the binding signal is 0.013 KA relative to UGCAUGU.
For B10, the binding signal was 0.00082 KA relative to UGCAUGU.
As for B11, the binding signal was 0.0355 KA relative to UGCAUGU.
The result for B12 reads 0.00808 KA relative to UGCAUGU; that for B13, 0.014 KA relative to UGCAUGU; that for B14, 0.0034 KA relative to UGCAUGU.
For the molecule B15, the binding signal is 0.0159 KA relative to UGCAUGU.
The figure for B16 is 0.0204 KA relative to UGCAUGU; for B17 it is 0.00975 KA relative to UGCAUGU; for B18 it is 0.0108 KA relative to UGCAUGU.
As for B19, the binding signal is 0.0138 KA relative to UGCAUGU.
The result for B20 reads 0.0141 KA relative to UGCAUGU; that for B21, 0.00782 KA relative to UGCAUGU.
The figure for B22 is 0.00324 KA relative to UGCAUGU; for B23 it is 0.000571 KA relative to UGCAUGU.
With B24, the binding signal is 0.00479 KA relative to UGCAUGU.
The figure for B25 is 0.0159 KA relative to UGCAUGU.
For the molecule B26, the binding signal is 0.0119 KA relative to UGCAUGU.
The result for B27 reads 0.000381 KA relative to UGCAUGU.
As to B28, the binding signal is 0.0168 KA relative to UGCAUGU.
The figure for B29 is 0.0172 KA relative to UGCAUGU; for B30 it is 0.015 KA relative to UGCAUGU.
Turning to B31, the binding signal was 0.0356 KA relative to UGCAUGU.
